Measured values: US3997506A (priority 1974, dated 1976)
Where two headings read alike, the source gives them in different places.

Tests used:
[1] = test system: human leucocytes (DNA synthesis); assay type: cell-based; conditions: for anti-mitotic activity (in words): 0.5 and 1 μg/ml; for incorporation of radio-activity (tritiated thymidine): Volunteer Nr. 4, control 4,799
[2] = test system: human leucocytes (DNA synthesis)
[3] = Volunteer Nr. 1, 5 μg/ml, control 47,403
[4] = Volunteer Nr. 1, 10 μg/ml, control 47,403
[5] = Volunteer Nr. 1, 20 μg/ml, control 47,403
[6] = Volunteer Nr. 1, 30 μg/ml, control 47,403
[7] = Volunteer Nr. 1, 50 μg/ml, control 47,403
[8] = Volunteer Nr. 2, 2.5 μg/ml, control 19,649
[9] = Volunteer Nr. 2, 5 μg/ml, control 19,649
[10] = Volunteer Nr. 2, 10 μg/ml, control 19,649
[11] = Volunteer Nr. 2, 20 μg/ml, control 19,649
[12] = Volunteer Nr. 2, 30 μg/ml, control 19,649
[13] = Volunteer Nr. 2, 50 μg/ml, control 19,649
[14] = Volunteer Nr. 3, 2.5 μg/ml, control 20,593
[15] = Volunteer Nr. 3, 5 μg/ml, control 20,593
[16] = Volunteer Nr. 3, 10 μg/ml, control 20,593
[17] = Volunteer Nr. 3, 20 μg/ml, control 20,593
[18] = Volunteer Nr. 3, 30 μg/ml, control 20,593
[19] = Volunteer Nr. 3, 50 μg/ml, control 20,593

| Structure (SMILES) | anti-mitotic activity (in words) [1] | incorporation of radio-activity (tritiated thymidine) ([1]; 0.5 μg/ml) | incorporation of radio-activity (tritiated thymidine) ([1]; 1 μg/ml) | incorporation of radio-activity (tritiated thymidine) [2, 3] | incorporation of radio-activity (tritiated thymidine) [2, 4] | incorporation of radio-activity (tritiated thymidine) [2, 5] | incorporation of radio-activity (tritiated thymidine) [2, 6] | incorporation of radio-activity (tritiated thymidine) [2, 7] | incorporation of radio-activity (tritiated thymidine) [2, 8] | incorporation of radio-activity (tritiated thymidine) [2, 9] | incorporation of radio-activity (tritiated thymidine) [2, 10] | incorporation of radio-activity (tritiated thymidine) [2, 11] | incorporation of radio-activity (tritiated thymidine) [2, 12] | incorporation of radio-activity (tritiated thymidine) [2, 13] | incorporation of radio-activity (tritiated thymidine) [2, 14] | incorporation of radio-activity (tritiated thymidine) [2, 15] | incorporation of radio-activity (tritiated thymidine) [2, 16] | incorporation of radio-activity (tritiated thymidine) [2, 17] | incorporation of radio-activity (tritiated thymidine) [2, 18] | incorporation of radio-activity (tritiated thymidine) [2, 19] | also measured |
| --- | --- | --- | --- | --- | --- | --- | --- | --- | --- | --- | --- | --- | --- | --- | --- | --- | --- | --- | --- | --- | --- |
| COc1cc2c(c(OC)c1OC)-c1ccc(SC)c(=O)cc1C(NC(=O)C13CC4CC(CC(C4)C1)C3)CC2 (single isomer, unassigned) [Derivative, N-desacetyl-N-adamantoyl-thiocolchicine] | markedly stronger with the derivative than with colchicine | 3,322 cpm | 1,713 cpm | 5,703 cpm | 3,190 cpm | 443 cpm | 195 cpm | 138 cpm | 5,359 cpm | 4,035 cpm | 1,766 cpm | 926 cpm | 435 cpm | 193 cpm | 6,259 cpm | 2,101 cpm | 968 cpm | 304 cpm | 200 cpm | 84 cpm | anti-mitotic activity compared with colchicine (in words) ([2]; general statement): equal to if not stronger than that of colchicine |
| COc1cc2c(c(OC)c1OC)-c1ccc(OC)c(=O)cc1[C@@H](NC(C)=O)CC2 [Colchicine, colchicine, reference compound] | definite anti-mitotic activity | 3,450 cpm | 2,384 cpm | 14,190 cpm | 10,884 cpm | 7,945 cpm | 4,874 cpm | 4,910 cpm | 8,103 cpm | 8,756 cpm | 6,046 cpm | 8,477 cpm | 8,136 cpm | 5,384 cpm | 5,242 cpm | 5,117 cpm | 6,450 cpm | 3,858 cpm | 3,044 cpm | 2,107 cpm | anti-mitotic activity (in words) ([2]; 2.5 μg/ml): very substantial |
